Experimental data as given in patent US5965718A, “Analogs of sarcodictyin and eleutherobin” (priority 1998, dated 1999).
Some entries share one result that the patent states for a list of compounds.

What was measured:
[1] = system: tubulin; ovarian cancer cells (1A9, 1A9PTX10, 1A9PTX22); settings: in words, compared with natural products 7 and 8
Method: (§1) FIG. 21 tabulates cytotoxicity data of sarcodictyins with the following tubulin polymerization and cytotoxicity properties of sarcodictyins: (a) The tubulin polymerization measurements were performed at 37° C. except for adjustments in drug concentration ([…]) and incubation time (90 min). (b) The cytotoxicity experiments were carried out as previously described (Giannakakou et al. J. Biol. Chem. 1995, 272, 17118-17125; Nicolaou et al. Angew. Chem. Int. Ed. Engl. 1997, 36, 2097-2103).
(§2) The synthesized sarcodictyin library (shown in FIG. 20) was screened for induction of tubulin polymerization using the filtration calorimetric assay and […] at 37° C. (results are listed in FIG. 20; Bollag et al. Cancer Res. 1995, 55, 2325-2333). These investigations were then followed by cytotoxicity studies with ovarian cancer cells (1A9) including two taxol-resistant lines (1A9PTX10 and 1A9PTX22; Giannakakou et al. J. Biol. Chem. 1995, 272, 17118-17125). The data reveal a number of important structure activity relationships (SARs).

[2] = system: ovarian cancer cells (1A9); type: cell-based; settings: 1A9 and taxol-resistant lines; in words, compared with natural substances 7 and 8; figures only in FIG. 21
Method: as §1, §2

[3] = system: tubulin; test: induction of tubulin polymerization, filtration calorimetric assay; type: biochemical; settings: 100 m compound at 37° C.; in words, compared with sarcodictyins A (7) and B (8); figures only in FIG. 20
Method: as §1, §2

SMILES	biological activity (tubulin polymerization and/or cytotoxicity), SAR statement [1]	cytotoxicity potency [2]	tubulin polymerization properties / potencies [3]
CO[C@]12C=C[C@](C)(O1)[C@@H](OC(=O)/C=C/c1cn(C)cn1)C[C@H]1C(C)=CC[C@H](C(C)C)[C@H]1/C=C\2CF [Compound 520]	failed to exhibit strong tubulin polymerization or cytotoxicity properties		
CO[C@]12C=C[C@](C)(O1)[C@@H](OC(=O)/C=C/c1cn(C)cn1)C[C@H]1C(C)=CC[C@H](C(C)C)[C@H]1/C=C\2CNC(C)=O [Compound 580]	failed to exhibit strong tubulin polymerization or cytotoxicity properties		
CO[C@]12C=C[C@](C)(O1)[C@@H](OC(=O)/C=C/c1cn(C)cn1)C[C@H]1C(C)=CC[C@H](C(C)C)[C@H]1/C=C\2COC(=O)Nc1ccccc1 [Compound 570]	failed to exhibit strong tubulin polymerization or cytotoxicity properties		
CO[C@]12C=C[C@](C)(O1)[C@@H](OC(=O)/C=C/c1cn(C)cn1)C[C@H]1C(C)=CC[C@H](C(C)C)[C@H]1/C=C\2CN=[N+]=[N-] [Compound 560]	failed to exhibit strong tubulin polymerization or cytotoxicity properties		
CO[C@]12C=C[C@](C)(O1)[C@@H](OC(=O)/C=C/c1cn(C)cn1)C[C@H]1C(C)=CC[C@H](C(C)C)[C@H]1/C=C\2COC(C)=O [Compound 530]	failed to exhibit strong tubulin polymerization or cytotoxicity properties		
CO[C@]12C=C[C@](C)(O1)[C@@H](OC(=O)/C=C/c1cn(C)cn1)C[C@H]1C(C)=CC[C@H](C(C)C)[C@H]1/C=C\2C(=O)OCCOCc1ccccc1 [Compound 690]	equal or superior biological activities	potencies comparable or higher that those of the natural substances	
CCCOC(=O)/C1=C/[C@@H]2[C@@H](C(C)C)CC=C(C)[C@@H]2C[C@H](OC(=O)/C=C/c2cn(C)cn2)[C@]2(C)C=C[C@@]1(OC)O2 [Compound 680]	equal or superior biological activities	potencies comparable or higher that those of the natural substances	
CCCCOC(=O)/C1=C/[C@@H]2[C@@H](C(C)C)CC=C(C)[C@@H]2C[C@H](OC(=O)/C=C/c2cn(C)cn2)[C@]2(C)C=C[C@@]1(OC)O2 [Compound 670]	equal or superior biological activities	potencies comparable or higher that those of the natural substances	
C=CCOC(=O)/C1=C/[C@@H]2[C@@H](C(C)C)CC=C(C)[C@@H]2C[C@H](OC(=O)/C=C/c2cn(C)cn2)[C@]2(C)C=C[C@@]1(OC)O2 [Compound 700]	equal or superior biological activities	potencies comparable or higher that those of the natural substances	
CO[C@]12C=C[C@](C)(O1)[C@@H](OC(=O)/C=C/c1cn(C)cn1)C[C@H]1C(C)=CC[C@H](C(C)C)[C@H]1/C=C\2COC(=O)c1ccccc1 [Compound 550]	failed to exhibit strong tubulin polymerization or cytotoxicity properties		
COC(OC)/C1=C/[C@@H]2[C@@H](C(C)C)CC=C(C)[C@@H]2C[C@H](OC(=O)/C=C/c2cn(C)cn2)[C@]2(C)C=C[C@@]1(OC)O2 [Compound 730]			superior tubulin polymerization properties to those of either sarcodictyins A (7) or B (8)
CO[C@]12C=C[C@](C)(O1)[C@@H](OC(=O)/C=C/c1cn(C)cn1)C[C@H]1C(C)=CC[C@H](C(C)C)[C@H]1/C=C\2C(=O)OCCCCc1ccccc1 [Compound 660]	equal or superior biological activities	potencies comparable or higher that those of the natural substances	
CO[C@]12C=C[C@](C)(O1)[C@@H](OC(=O)/C=C/c1cn(C)cn1)C[C@H]1C(C)=CC[C@H](C(C)C)[C@H]1/C=C\2CNC(=O)c1ccccc1 [Compound 590]	failed to exhibit strong tubulin polymerization or cytotoxicity properties		
CO[C@]12C=C[C@](C)(O1)[C@@H](OC(=O)/C=C/c1cn(C)cn1)C[C@H]1C(C)=CC[C@H](C(C)C)[C@H]1/C=C\2CO [Compound 510]	failed to exhibit strong tubulin polymerization or cytotoxicity properties		
